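Following 48 hours of exposure in 96-well plates, responses at five concentrations were used to interpolate endpoints linearly. GI50: concentration for 50% inhibition of growth.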 Calls of active or inactive are those of the source. Cut-off read from the data, not from the text of the source: active = GI50 up to about 1.1 µM and inactive = higher.
The molecules below were run on NCI-H322M (assay: growth of human tumour cells (NCI), 48 h).

SMILES	GI50
CCOC(=O)c1nc2ccccc2nc1Nc1ccc(F)cc1	inactive: > 100 µM
O=C1c2ccccc2-c2c1c(-c1ccc(F)cc1)nc1ccc3ccccc3c21	inactive: > 100 µM
O=C1CC2C(=O)N(Cc3ccccc3)C1C(S(=O)(=O)c1ccccc1)C2S(=O)(=O)c1ccccc1 (stereo not given)	inactive: 17.1 µM
CC1(C)COC(c2ccc(C(F)(F)F)cc2C(O)c2ccc3ccccc3c2)=N1 (stereo not given)	inactive: > 10 µM
CCSC(=O)/C=C1\CN(C(=O)OC(C)(C)C)C1C(=O)OC(C)(C)C (stereo not given)	inactive: 9.16 µM
O=[N+]([O-])c1cccc([N+](=O)[O-])c1Cl	inactive: 20.4 µM
C[Si](C)(C)c1ccc(-c2c3ccc(-c4cc(Br)cc(Br)c4)nc3nc3nc(-c4cc(Br)cc(Br)c4)ccc23)cc1	inactive: > 100 µM
Clc1cc(Cl)cc(/C=N/C23CC4CC(CC(C4)C2)C3)c1	inactive: > 10 µM
CC(C)(C)[Si](C)(C)OCC1OC(n2cnc3c(N)ncnc32)C(O)C1O (stereo not given)	inactive: > 100 µM
NC(=O)N/N=C1\CC2C3CC4C2C4C13 (stereo not given)	inactive: > 100 µM
CC1OC(OC2C(OC(=O)[C@]34CCC(C)(C)C[C@H]3C3=CC[C@@H]5[C@@]6(C)CC[C@H](OC7OC(CO)C(O)C(O)C7OC7OC(CO)C(O)C(O)C7O)C(C)(C)[C@@H]6CC[C@@]5(C)[C@]3(C)CC4)OCC(O)C2O)C(O)C(O)C1OC1OCC(O)C(O)C1O (stereo not given in full)	inactive: 11.4 µM
CC(C)(C)c1cc(C(=O)/C=C/c2ccc3c(c2)CCO3)cc(C(C)(C)C)c1O	inactive: 1.79 µM
CCOC(=O)C(NNS(=O)(=O)c1ccc(C)cc1)S(=O)(=O)C(F)(F)C(F)(F)C(F)(F)C(F)(F)F (stereo not given)	inactive: 19.3 µM
O=C(O)CCN(CCCCN(CCC(=O)O)CCC(=O)O)CCC(=O)O	inactive: > 100 µM
S=C1C=C(c2ccccc2)Sc2ccccc2N1	inactive: > 100 µM
C[C@]12CCc3nonc3C1CC[C@@H]1C2CC[C@]2(C)C(=O)CCC12 (stereo not given in full)	inactive: 52.4 µM
CCCCCCCCC#CCCCCCCC(F)C(=O)O (stereo not given)	inactive: > 100 µM
C[C@]12CC[C@H]3[C@@H](CC=C4C[C@@H](O)CC[C@@]43C)[C@@H]1C/C(=C\c1ccncc1)[C@@H]2O	inactive: 18.5 µM
O=c1[nH]c2nc3ccccc3c(=O)n2/c1=C/c1ccccc1	inactive: 77.4 µM
OC(c1nc2ccccc2s1)(C(F)(F)F)C(F)(F)F	inactive: > 100 µM
COC(=O)C(Cc1ccccc1)NC(=O)CSc1nnc(COc2ccc(Cl)cc2)n1-c1ccccc1 (stereo not given)	inactive: 23.5 µM
Cc1ccccc1C(C#N)C(=O)C(=O)Nc1cccc(Cl)c1 (stereo not given)	inactive: > 100 µM
CC1=[N+]([O-])C(C)(C)N(N=O)C1(C)C	inactive: > 10 µM

SMILES	GI50
COc1cc(/C=C2\CCC(C)C3=C2N=c2s/c(=C/c4ccc(Cl)cc4)c(=O)n2C3c2cc(OC)c(OC)c(OC)c2)cc(OC)c1OC (stereo not given)	inactive: > 100 µM
Cc1nc(C(N)=S)sc1C(=O)CC(=O)C(=O)Nc1nc2ccccc2[nH]1	inactive: > 100 µM
O=C(/C=C(\N=P(c1ccccc1)(c1ccccc1)c1ccccc1)C(F)(F)C(F)(F)C(F)(F)C(F)(F)C(F)(F)C(F)(F)C(F)(F)F)c1ccccc1	inactive: > 100 µM
COc1ccc(C(=O)/C=C/c2ccc(OCC(=O)N3CCN(c4ccccc4)CC3)cc2)cc1OC	inactive: 3.7 µM
Nc1ccc2c(c1)NCCN2	inactive: 89.9 µM
C(=C\c1ccccc1)/COc1ccccc1C(N1CCOCC1)n1nc2ccccc2n1 (stereo not given)	inactive: 20.2 µM
CCC(C)[C@H](NC(=O)N[C@H](C)c1ccccc1)C(=O)OC (stereo not given in full)	inactive: > 100 µM
CC(C)(C)[Si](C)(C)OCC1CCC(n2cnc3c(=O)[nH]cnc32)O1 (stereo not given)	inactive: > 100 µM
Cc1ccc(/C=N/n2c(Cc3ccccc3)n[nH]c2=O)cc1	inactive: > 100 µM
CCSC1SC(c2ccccc2)(c2ccccc2)c2ccccc21 (stereo not given)	inactive: 41.4 µM
C/C(C=O)=C1\C(O)C[C@]1(C)C1CC(C)(C)CC1O (stereo not given in full)	inactive: > 100 µM
COc1cccc(N[C@@H]2c3cc4c(cc3C(c3cc(OC)c(O)c(OC)c3)[C@H]3C(=O)OCC32)OCO4)c1 (stereo not given in full)	inactive: 7.66 µM
Nc1ncnc2c1ncn2C1C(O)C=C(CO)C1O (stereo not given)	inactive: > 625 µM
NC1C[C@H](n2cc(/C=C/Br)c(=O)[nH]c2=O)C[C@@H]1CO (stereo not given in full)	inactive: > 100 µM
CC(C)(O)[C@@H]1CC[C@@]2(C)CCCC(O)C2(O)C1 (stereo not given in full)	inactive: > 100 µM
Cc1cccc2cc3cccc(C(=O)NCCN(C)C)c3nc12	active: 0.265 µM
C[N+]1(CCCC[N+]2(C)CCCCCCC2)CCCCCCC1	inactive: > 100 µM
CC(C)=CCC[C@](C)(O[C@@H]1O[C@H](CO)[C@@H](O)[C@H](O)[C@H]1O)[C@H]1CC[C@]2(C)[C@@H]1[C@H](O)C[C@@H]1[C@@]3(C)CC[C@@H](O)C(C)(C)[C@@H]3[C@@H](O[C@@H]3O[C@H](CO)[C@@H](O)[C@H](O)[C@H]3O)C[C@]12C.C[C@@H]1O[C@@H](O[C@H]2[C@H](O[C@H]3C[C@]4(C)[C@H](C[C@H](O)[C@@H]5[C@@H]([C@@]6(C)CC[C@H](C(C)(C)O)O6)CC[C@]54C)[C@@]4(C)CC[C@H](O)C(C)(C)[C@H]34)O[C@H](CO)[C@@H](O)[C@@H]2O)[C@H](O)[C@H](O)[C@H]1O	inactive: > 100 µM
Cc1ccc(S(=O)(=O)n2cc(-c3cc(C(F)(F)F)ccn3)c3cc(Br)ccc32)cc1	inactive: 17.3 µM
CCCCc1ccc(-n2c3nc(=O)n(C)c(=O)c-3nc3ccccc32)cc1	inactive: 7.18 µM
O=C(O)CCSc1ncnc2[nH]cnc12	inactive: > 100 µM
C/C(=N\N=C(/S)N1CC2CCC(CC2)C1)c1ccncn1	active: < 0.01 µM

Source: ChEMBL document CHEMBL1201862, “PubChem BioAssay data set” (2004)
